Some of the results follow.
System: PfHDP1 homeodomain (GST-tagged)
Test: gcPBM binding intensity (ln(normalized median fluorescence intensity)); higher = stronger DNA binding
Outline: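 The highest Masliner-normalised natural-log median intensity across replicate spots of either probe orientation is reported as binding intensity. GST-tagged P. falciparum DNA-binding domains expressed in E. coli were applied for 1 h to an Agilent 4 × 180k array of primer-extended double-stranded 36-bp intergenic genomic probes plus negative controls, and bound protein was detected with Alexa488 anti-GST antibody and scanned at 488 nm.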

Sequence | gcPBM binding intensity (ln)
AATTAAATTACTTATACACACATAAAATGTCTGTAT [CACACA_site997] | 6.71
AAATTATGAACATATTGTACATATATATATATATAT [XGTACX_site8269] | 9.41
CATGTATGTACCATGGTGCAACAATATTTTTAACAA [GTGCAC_site9597] | 8.57
TCATTGTTAAGCTGAAGTACTTATAATTACATCGAG [XGTACX_site6340] | 6.45
AATATATTTTAATATACACACATATCTGCTCTTTAA [CACACA_site6130] | 6.48
TAAAATTATATAAAGGAACACACATTTTATTTTATT [CACACA_site8423] | 6.28
TATTAGCATGTTATTACACACAATATAAAATATATA [CACACA_site1401] | 6.65
TGTCAATCATATAAATGTACATTTTAAATGAGGTGT [XGTACX_site7391] | 6.93
CAAATAAAAATAAGGAGTACAATTAAAAAAGGAAGG [XGTACX_site4366] | 6.73
GAAAAGAAAAATAAACGTACATAAATATTAACATTA [XGTACX_site8213] | 5.83
AAAATAAAAAAGTGTACACATATTAAAATGTATTTA [CACACA_site4424] | 6.56
TATTTATTGTGATACTACTATTATTTTATGATTAAA [CACACA_negctrl_site284] | 6.23
ACCCAATTTTAAAATGAACACACATGTTTTTCTTAC [CACACA_site8246] | 6.93
ATAATTATATATTTATGTACGCATAAATATTTATAT [XGTACX_site5765] | 6.38
AACTATATCATTTATTTTATTTTTTAAATACATTTA [CACACA_negctrl_site183] | 6.19
TATATATAACTTTATTGTACAAAATATTATGTATTC [XGTACX_site981] | 6.57
TTATATTATTTTTAATGTACTTTTTATGAATACAAA [XGTACX_site689] | 7.03
TATACAACTTTATGAAGTACAAAAAGTTCTATATAT [XGTACX_site3866] | 6.15
TTGTTTTATTATTCGATGCACTACAGAAATATATTC | 7.75
TATAATATTATATATAAACACACATACACATGTAAA [CACACA_site8631] | 7.08
AGAAAAGTTTAATACAGTACATAAACAAAGTATAGG [XGTACX_site2386] | 6.71
GTATATTTATAGCCTTTATTATATTTAATATTATTA [TGCATGCA_negctrl_site26] | 6.24
GTTATATTTTTTTATACACACTGGAATATATAAATA [CACACA_site4282] | 6.76

Sequence | gcPBM binding intensity (ln)
TGTAATAAATAGTACACACACACATATTTATATATC [CACACA_site6770] | 6.87
ATATGGGTAATGAATTGTACTCTTTCTTGTTGTTCT [XGTACX_site4487] | 6.34
GTATAATTTTCGTATTCACACAAGAATATACTACAT [CACACA_site4877] | 6.51
AATATATGTATGTACGCATGTATGTATCTATGTATT [TGCATGCA_site389] | 6.52
TTATAATTATATACATGTACATATAATACATATATA [XGTACX_site8904] | 6.54
TATATTATATACCATTGTACATATAATATAGGTTCT [XGTACX_site7047] | 6.25
AAAATCATTCCAAAGACATGCATTTTGCAAATAAAA [TGCATGCA_site461] | 9.22
AAAAACAGAAATGTAACACACAAAAATTCTATTTAT [CACACA_site4026] | 6.2
TTTTGTTATAAATAATGTACATATTTATTTAAAATT [XGTACX_site6610] | 6.25
TCTATAAAGGAATATACACACATATATAAATATGTA [CACACA_site6332] | 6.27
AACCTTTATATGTAAAGTACAAAAAAGAGTAAAAAA [XGTACX_site5506] | 6.69
TATAAAAATGTGCACACACACACATATTTATATTTA [CACACA_site6826] | 10.1
TTTATTATTTTTAGGAGTACACAAAATAAAACAAAT [XGTACX_site8841] | 6.68
ATTAATTATAATGTATGTACATAACTTTTTTATATT [XGTACX_site5784] | 6.5
GAAAATACGTTTAATCGTACATATATATAATATATA [XGTACX_site4243] | 6.56
AACATACATAGACACACACACACACGCACACGCACA [CACACA_site6373] | 7.4
ACAAGTTTTTTTTTATCACACACAAAAAAAAAAATA [CACACA_site8377] | 6.29
TATTTACCCTCATGTTGTACTTTTCATTCATTTTAT [XGTACX_site7794] | 7.34
TATAACATTGTATGAATGCACTTTTATCTATTTTAA [GTGCAC_site9903] | 7.25
AAGATACACTTAATCGCACACGAAATTATATATTTA [CACACA_site3063] | 6.98
TTTTTTTTTTATGTTATTAAAAAAAAAAAAAATTAA [CACACA_negctrl_site222] | 5.75
AAATGTTATATATAATGTACTTGTAAGAACGTTCCT [XGTACX_site2840] | 6.47
ATAATTTTAAATAAATGTACATATAGATGTGTGTAA [XGTACX_site3958] | 6.89

Sequence | gcPBM binding intensity (ln)
AATAATGTATGAAATAAACACACAAGTAAGTACATA [CACACA_site8776] | 6.61
AAAATTATATATTATAGTACATAAAATATTGATAAA [XGTACX_site8988] | 6.27
ATGAGAAAATATATTATTTTATATGAACAAGTTTAT [XGTACX_negctrl_site372] | 6.09
AAAAAAAAAAAAAAAACACACATTTAATGAACTTAT [CACACA_site1276] | 6.6
ACTTGTAAGAAACACACACACACACCGATATATATA [CACACA_site4594] | 6.87
AAAAATAAGAAAAAGTGTACTTTATTATGTATATAT [XGTACX_site2305] | 6.35
ATTATTTTTTTTCTTATACACACCATGCATCAAACT [CACACA_site2128] | 7.76
ATATATAATCATATGTGTACATATATATTAATTTAA [XGTACX_site2839] | 6.54
AATTCAAAATAAAAATGTACATATATCAGAATATGG [XGTACX_site42] | 6.5
TTTTTTTTTTTTTATTGTACATGCAAAAAATTCCAC [XGTACX_site2371] | 6.43
ATATATATATATTGTAGTACTTATTAAATTATTTAT [XGTACX_site6235] | 8.71
TCTGTATTTCCTTATGCATGCATTAGCAAGATAATA [TGCATGCA_site483] | 7.19
GTAAGTATATATAAATGTACTTATGAGGTCAAATTA [XGTACX_site3392] | 6.18
TTGGGTATTTTGTGCGCACACACATGCAAAAAGAAA [CACACA_site8299] | 9.63
CCAACTATATTATGAAGTACATATATATTATATATA [XGTACX_site5767] | 6.74
TATACATATTTTATAGCACACAAATAATAATATGTA [CACACA_site8129] | 6.63
AAACCTACATAACATACACACGCATATATATAATTT [CACACA_site8923] | 6.89
TGCGACCATAATAAAGCACACAATGAAAAATATATA [CACACA_site256] | 6.77
ATAATATGAAACTAAGGTACACATATATTAACAGAG [XGTACX_site3842] | 6.73
TACAAATTAATATGTACACACAAATATATATATATA [CACACA_site1977] | 9.17
TGTGCTCAAAATTATGCACACACCTAAAATTAATTT [CACACA_site8950] | 10.7
AGAGATACATAAAAAAGTACATATAAAATTTAGGAA [XGTACX_site7201] | 6.52
TAAGTATACTCATACACACACACACTAGAAAAAAAA [CACACA_site4397] | 6.89

Sequence | gcPBM binding intensity (ln)
TATTTATTTATATACACACACTTGTATAAAAAATGT [CACACA_site7048] | 6.75
ATATATATATATGTATGTACACATATTTTTTAACTT [XGTACX_site431] | 8.99
AAATAAATAAATTAACGTACATAATAACATTAATAT [XGTACX_site8567] | 6.1
TTATATTATAGACACACACACAAAAAAAAAAAAAAA [CACACA_site3816] | 6.4
TATATATATATTATTAGTACTTATTTTTTTTCATAT [XGTACX_site1279] | 8.55
TGTAAAACCTCCTACACACACCAATTAACTATTCTA [CACACA_site7074] | 6.53
TATAACTTTTATAGGTGTACCCAATATTATATATAG [XGTACX_site7673] | 6.27
TATATATAATAAGAAGGTACACGTAAGTAATAATTT [XGTACX_site934] | 7.08
TTTATATGTTTTGTATTTTTAATAAATATTTTATTA [TGCATGCA_negctrl_site20] | 6.69
CCATCTTTTTTACGATGTACAAGTATAAGGTATACG [XGTACX_site2697] | 6.66
TTCTTTTTTTTTCTGGGTACATATATTCCAATCACT [XGTACX_site4770] | 7.3
TTATAAAAGACAAAAGTGCATATATACATATGTATA | 7.5
AATATAATTATATGTGGTACAGAAATAATATAAAAT [XGTACX_site2366] | 6.96
TATTATGTTATATATTGTACATGTTTATTGAAACAA [XGTACX_site5605] | 6.5
TTTATATGTGAAAAAAGTACAAGGAAAAAATTAAAC [XGTACX_site7269] | 7.07
TTTTTTTTAGTATGAACACACATATATATTATAAAA [CACACA_site2935] | 6.38
TATTAACAAAATATAGCACACATAAATATATATTTA [CACACA_site8005] | 6.84
AATATATCTTTTTACGGCAACCATATTTTTCCCATT [CACACA_negctrl_site963] | 6.74
TTTTTTTTTTTTTGATGTACATAAATTAAGAATTAT [XGTACX_site7789] | 6.39
TTGAATTAAAAACATACATGCATATATATATATATA [TGCATGCA_site319] | 9.29
